Data reported in the supplement of paper PMC12217912.
Some of the results follow. The full chains were built here from the parent and the listed change. Inactive controls read about 0.05.

B1: TEV protease; numbered along this chain (parent)
chain: MGESLFKGPRDYNPISSSICHLTNESDGHTTSLYGIGFGPFIITNKHLFRRNNGTLVVQSLHGVFKVKDTTTLQQHLVDGRDMIIIRMPKDFPPFPQKLKFREPQREERICLVTTNFQTKSMSSMVSDTSCTFPSGDGIFWKHWIQTKDGQCGSPLVSTRDGFIVGIHSASNFTNTNNYFTSVPKNFMELLTNQEAQQWVSGWRLNADSVLWGGHKVFMVKPEEPFQPVKEATQL

Variants of: B1
Assay: raw area under fraction-flipped curve 0-4 h after induction (AUC4h, not background-subtracted), DNA-recorder readout of cleavage of the substrate (dimensionless); higher = more cleavage of the substrate by the protease variant
Conditions: temperature: 34 °C; time window: 0-4 h after rhamnose induction
Procedure: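 In vivo DNA recorder in E. coli TOP10(DE3) ΔrhaA at 34 °C. Each TEVp single-site mutant (parent TEVp 0) is paired with a single-site variant of the 7-mer TEVs (canonical ENLYFQ|S). The substrate sits between flexible linkers in a Bxb1-sfGFP-TEVs-SsrA fusion, so cleavage stabilises Bxb1 and speeds flipping of a recombination array, read by NGS. The value is the raw area under the fraction-flipped curve over 0-4 h after rhamnose induction (AUC4h), with ≥20 reads per time point. It is not background-subtracted; inactive controls average about 0.047.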
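Note: Bxb1 expression induced with 0.2% (w/v) L-rhamnose at OD600 near 0.5, cultures sampled hourly, flipped fraction per protease–substrate barcode pair counted by paired-end Illumina sequencing.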

Row | Variant | area with substrate ENAYFQS | area with substrate ENDYFQS | area with substrate ENEYFQS | area with substrate ENGYFQS | area with substrate ENHYFQS | area with substrate ENIYFQS | area with substrate ENMYFQS | area with substrate ENNYFQS | area with substrate ENSYFQS | area with substrate ENCYFQS | area with substrate ENFYFQS | area with substrate ENKYFQS | area with substrate ENPYFQS | area with substrate ENQYFQS | area with substrate ENRYFQS | area with substrate ENTYFQS | area with substrate ENVYFQS | area with substrate ENYYFQS | area with substrate ENWYFQS
1 | MGESLFKGPRDYNPISSSICHLTNESDGHTTSLYGIGFGPFIITNKHLFRRNNGTLVVQSLHGVFKVKDTTTLQQHLVDGRDMIIPRMPKDFPPFPQKLKFREPQREERICLVTTNFQTKSMSSMVSDTSCTFPSGDGIFWKHWIQTKDGQCGSPLVSTRDGFIVGIHSASNFTNTNNYFTSVPKNFMELLTNQEAQQWVSGWRLNADSVLWGGHKVFMVKPEEPFQPVKEATQL [I86P] | 0.0243 | 0.032 | 0.0511 | 0.0404 | 0.0337 | 0.0347 | 0.0372 | 0.0321 | 0.0416 | – | – | – | – | – | – | – | – | – | –
2 | MGESLFKGPRDYNPISSSICHLTNESDGHTTSLYGIGFGPFIITNKHLFRRNNGTLVVQSLHGVFKVKDTTTLQQHLHDGRDMIIIRMPKDFPPFPQKLKFREPQREERICLVTTNFQTKSMSSMVSDTSCTFPSGDGIFWKHWIQTKDGQCGSPLVSTRDGFIVGIHSASNFTNTNNYFTSVPKNFMELLTNQEAQQWVSGWRLNADSVLWGGHKVFMVKPEEPFQPVKEATQL [V78H] | 0.0435 | 0.0508 | – | – | – | 0.0643 | – | 0.0398 | 0.0725 | 0.0147 | 0.0554 | 0.0582 | 0.0662 | 0.0493 | 0.0644 | 0.0179 | 0.0435 | – | –
3 | MGESLFKGPRDYNPISSSICHLTNESDGHTTSLYGGGFGPFIITNKHLFRRNNGTLVVQSLHGVFKVKDTTTLQQHLVDGRDMIIIRMPKDFPPFPQKLKFREPQREERICLVTTNFQTKSMSSMVSDTSCTFPSGDGIFWKHWIQTKDGQCGSPLVSTRDGFIVGIHSASNFTNTNNYFTSVPKNFMELLTNQEAQQWVSGWRLNADSVLWGGHKVFMVKPEEPFQPVKEATQL [I36G] | 0.045 | 0.0517 | 0.046 | – | – | – | – | 0.0412 | 0.0316 | 0.0496 | 0 | – | 0.0333 | – | – | – | 0.0368 | 0.0357 | –
4 | MGESLFKGPRDYNPISSSICHLTNESDGHTTSLYGIGFGPFIITNKHLFRRNNGTLVVQSLHGVFKVKDTTTLQQHLVDGRDMIIIRMPKDFPPFPQKLKFREPQREERICLVTTNFQTKSMSSMVSDTSCTFPSGDGIFWKHWIQTKDGQCGSPLVSTRDGFIVGIHSASNFTNTNNYFTSVPKNFMELNTNQEAQQWVSGWRLNADSVLWGGHKVFMVKPEEPFQPVKEATQL [L191N] | 0.0535 | 0.0418 | 0.0589 | 0.0514 | – | – | 0.0514 | – | 0.0596 | 0.0521 | 0.0479 | 0.049 | 0.0556 | – | 0.0522 | 0.059 | 0.0595 | – | 0.0482
5 | MGESLFKGPRDYNPISSSICHLTNESDGHTTSLYGIGFGPFIITNKHLFRRNNGTLVVQSLHGVFKVKDTTTLQQHLVDGRDMIIIRMPKDFPPFPQKLKFREPQREERICLVTTNFQTKSMSSMVSDTSCTFPSGDGIFWKHWIQTKDGQCGSPLVSTRDGFIVGIHSASNFTNTNNYFTSVPKNFMELHTNQEAQQWVSGWRLNADSVLWGGHKVFMVKPEEPFQPVKEATQL [L191H] | 0.0479 | 0.0572 | 0.0743 | – | 0.0315 | 0.0386 | – | 0.0622 | 0.0781 | – | 0.0557 | 0.0522 | 0.0654 | 0.0644 | 0.0523 | – | 0.04 | 0.0719 | –
6 | MGESLFKGPRDYNPISSSICHLTNESDGHTTSLDGIGFGPFIITNKHLFRRNNGTLVVQSLHGVFKVKDTTTLQQHLVDGRDMIIIRMPKDFPPFPQKLKFREPQREERICLVTTNFQTKSMSSMVSDTSCTFPSGDGIFWKHWIQTKDGQCGSPLVSTRDGFIVGIHSASNFTNTNNYFTSVPKNFMELLTNQEAQQWVSGWRLNADSVLWGGHKVFMVKPEEPFQPVKEATQL [Y34D] | 0.0464 | 0.0685 | – | 0.0887 | 0.0545 | – | – | 0.0577 | 0.0512 | 0.0629 | – | – | 0.0668 | 0.0539 | – | – | – | – | 0.0719
7 | MGESLFKGPRDYNPISSSICHLTNESDGHTTSLYGIGFGPFIITNKHLFRRNNGTLVVQSLHGVFKVKDTTTLQQHLVDGRDMIIIRMPKDFPPFPQKLKFREPQREERICLVTTNFQTKSMSSMVSDTSCTFPSGDGIFWKHWIQTKFGQCGSPLVSTRDGFIVGIHSASNFTNTNNYFTSVPKNFMELLTNQEAQQWVSGWRLNADSVLWGGHKVFMVKPEEPFQPVKEATQL [D149F] | 0.0544 | 0.0365 | – | – | 0.0539 | 0.0827 | – | – | 0.0615 | 0.0575 | 0.0501 | 0.0536 | – | 0.0767 | 0.0658 | 0.06 | 0.0651 | 0.0354 | –
8 | MGESLFKGPRDYNPISSSICHLTNESDGHTTSLYGIGFGPFIITNKHLFRRNNGTLVVQSLHGVFKVKDTTTLQQHLVDGRDMIIIRMPKDFPPFPQKLKFREPQREERICLVTTNFQTKSMSSMVSDTSCTFPSGDGIFWKHWIQTKEGQCGSPLVSTRDGFIVGIHSASNFTNTNNYFTSVPKNFMELLTNQEAQQWVSGWRLNADSVLWGGHKVFMVKPEEPFQPVKEATQL [D149E] | 0.0463 | 0.0534 | – | 0.0582 | 0.0591 | 0.0828 | – | – | – | 0.0424 | 0.0565 | – | – | 0.0545 | – | 0.0567 | 0.0578 | – | 0.0609
9 | MGESLFKGPRDYNPISSSICHLTNESDGHTTSLYGIGFGPFIITNKHLFRRNNGTLVVQSLEGVFKVKDTTTLQQHLVDGRDMIIIRMPKDFPPFPQKLKFREPQREERICLVTTNFQTKSMSSMVSDTSCTFPSGDGIFWKHWIQTKDGQCGSPLVSTRDGFIVGIHSASNFTNTNNYFTSVPKNFMELLTNQEAQQWVSGWRLNADSVLWGGHKVFMVKPEEPFQPVKEATQL [H62E] | 0.0567 | 0.0605 | 0.0532 | – | – | – | 0.08 | 0.0646 | 0.0733 | – | 0.0797 | 0.0516 | 0.0574 | 0.0722 | 0.066 | 0.0652 | – | – | –
